This is an account of results in PubChem BioAssay AID1346428 (National Center for Advancing Translational Sciences (NCATS), 2018).

In all, about 48,000 compounds went through this assay and about 1,200 (2.5%) were called active. Roughly 2% stayed inconclusive and do not appear here.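 The calls were made as follows: active = activation of at least 60% and not above a set upper limit (about 1 call in 100 departs from these limits); inconclusive = activation of 40% to 60%, or above that upper limit; inactive = activation under 40%.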 Some of the results follow.

Chain of UniProt O75388 (O75388 whole entry, looked up): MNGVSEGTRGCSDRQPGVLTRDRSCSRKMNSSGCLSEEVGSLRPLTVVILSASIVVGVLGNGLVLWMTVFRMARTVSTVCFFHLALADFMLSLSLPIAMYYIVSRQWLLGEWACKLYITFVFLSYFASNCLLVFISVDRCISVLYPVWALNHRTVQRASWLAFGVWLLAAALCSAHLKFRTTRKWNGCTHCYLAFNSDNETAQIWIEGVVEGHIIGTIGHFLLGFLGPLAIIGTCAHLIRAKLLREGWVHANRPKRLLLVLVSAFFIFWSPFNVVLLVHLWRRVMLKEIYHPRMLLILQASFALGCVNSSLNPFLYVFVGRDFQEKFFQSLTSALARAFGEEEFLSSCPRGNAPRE

The target in the experiment is Probable G-protein coupled receptor 32 (Homo sapiens) (UniProt O75388). The experiment in a line: qHTS for Agonists of Human Resolvin D1 Receptor DRV1. Also: 0% is about no effect. The following applies: CHO-K1 GPR32 beta-arrestin PathHunter luminescence, 90 min; at 76.9 µM; stronger effect = higher value; zero percent set by DMSO-only wells. The procedure, abridged:
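Engineered CHO-K1 line co-expressing GPR32-ProLink and EA-beta-arrestin. Compound treatment lasted 90 min at 37 °C. Luminescence was recorded after 1 h with substrate at ambient temperature, relative to DMSO basal wells.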
(qHTS replaces the single test concentration by a dilution series.)
`CCSc1nn(CC(=O)Nc2cccc(CC)c2)c(N)c1S(=O)(=O)c1ccccc1`: the activation is active: 93.6%.
The result for `Cc1ccc(S(=O)(=O)c2c(O)cc(C)c(NS(=O)(=O)c3ccc(Br)cc3)c2C)cc1` reads inactive: 41.9%; that for `COC(=O)CCN(C(=O)C1CCN(S(=O)(=O)c2c(C)noc2/C=C/c2ccccc2F)CC1)c1ccccc1`, inactive: -12.2%.
Consider `CC(C)Oc1ccc(C(=O)Nc2nonc2-c2ccc(OC(C)C)cc2)cc1`, for which the activation is inactive: 4.87%.
For `CCc1ccccc1N1C(=O)N(CC(=O)c2ccc(OC)cc2)c2ccccc2S1(=O)=O`, the activation is inactive: 8.49%.
Consider `CCc1cccc(NC(=O)Cn2nc3c4cc(F)ccc4n(Cc4cccc(C)c4)cc-3c2=O)c1`, for which the activation is inactive: -1.95%.
The result for `CCOC(=O)c1cc(C)n(CC2CCC(C(=O)Nc3cc(OC)cc(OC)c3)CC2)c1C` (configuration not stated) reads inactive: -11.9%.
On to `COc1cc(NC(=O)CC(c2cccs2)N2Cc3ccccc3C2=O)cc(OC)c1OC` (configuration not stated), for which the activation was inactive: 6.55%.
The result for `CCCNC(=O)c1cnc2c(-c3ccc(OCC)c(OCC)c3)c(C)nn2c1-c1ccccc1` reads inactive: 4.26%; that for `Clc1cccc(CSc2nnc(C3CCNCC3)o2)c1`, inactive: -6.72%.
Turning to `CC(C)n1c(=N)c(C(=O)NC2CCCCC2)cc2c(=O)n3ccccc3nc21`, the activation was inactive: 13.1%.
On to `CCN(CCCNC(=O)Cn1ncc2c([nH]c3ccc(C)cc32)c1=O)Cc1ccccc1`, for which the activation is inactive: 8.34%.
The result for `COc1ccc(NC(=O)C(=O)NCc2ccco2)cc1` reads inactive: -2.16%; that for `COc1cccc(CN(C(=O)c2cccc(C)c2)C2CCS(=O)(=O)C2)c1` (configuration not stated), inactive: -3.21%; that for `CC(=O)c1ccc(NC(=O)Cn2nc(C(F)(F)F)c3c2CCCC3)cc1`, inactive: 31.6%.
The result for `COc1ccc(OC)c(-c2noc(N3CCN(c4cccc(C)c4C)CC3)n2)c1` reads inactive: 12.9%; that for `COC(=O)CC1Oc2ccc(C)cc2-n2cc(-c3ccc(C)cc3)nc21` (configuration not stated), inactive: 5.21%.
The result for `Cc1ccc(CSc2oc(-c3cccs3)nc2S(=O)(=O)c2ccc(C)cc2)cc1` reads inactive: -9.01%; that for `COC(=O)c1ccccc1NC(=O)C1=C(C)C(=O)OC12CCC(C)CC2` (configuration not stated), inactive: -30.3%.
As for `CCc1ccc(NC(=O)Cn2c(=O)n(-c3cc(C)cc(C)c3)c(=O)c3oc4ccccc4c32)cc1`, the activation was inactive: 0.364%.
For the molecule `COc1ccc(-c2nc(SCC(=O)Nc3ccc4c(c3)OCCO4)c(-c3ccccc3)[nH]2)cc1`, the activation is inactive: -11.8%.
In the case of `COc1ccccc1Cn1cc(C(=O)c2ccc(C)cc2)c(=O)c2cc(F)cc(F)c21`, the activation was inactive: 14.6%.
The result for `CCCN(CCC)C(=O)Cn1c(=O)n(Cc2ccc(C(=O)NCCc3ccc(Cl)cc3)cc2)c(=O)c2ccccc21` reads inactive: -16.3%; that for `Cc1ccc2oc(C(=O)Nc3sc4c(c3C(=O)NCc3cccnc3)CCCC4)cc(=O)c2c1`, inactive: -0.342%.
The result for `CCOC(=O)/C(C#N)=C/c1ccc(-c2ccc(C)cc2)o1` reads inactive: -9.07%.
The result for `Cc1ccc(-n2nc3c(=O)n(CCCC(=O)NC(C)c4ccccc4)nc(C)c3c2C)cc1` (configuration not stated) reads inactive: -7.62%.
In the case of `CC(C)CC(=O)Nc1nnc(S(=O)(=O)N2CCc3ccccc32)s1`, the activation is inactive: 4.96%.
The result for `Cc1ccc(C(=O)Nc2ccc3[nH]c(=O)c(=O)[nH]c3c2)cc1` reads inactive: 7.91%.
On to `CC(C)Oc1ccc(CNC(=O)Cn2c(-c3cccs3)cc3ccccc32)cc1`, for which the activation was inactive: -6.54%.
The result for `COc1cc(NC(=O)CC2C(=O)N(c3cccc(C)c3)C(=O)N2Cc2cccs2)cc(OC)c1` (configuration not stated) reads inactive: -18.8%; that for `CCS(=O)(=O)N1CCc2cc(C(=O)NCCc3ccc(OC)c(OC)c3)ccc21`, inactive: 7.76%; that for `COc1cccc(C(=O)Nc2ccc(S(=O)(=O)N(Cc3ccccc3)c3ccccc3)cc2)c1`, inactive: 6.82%.
`Cc1ccc(C2CCN(C(=O)Nc3ccc(C)c(C)c3)C2)cc1` (configuration not stated): the activation was inactive: -14.6%.
As for `Cc1ccc(C)c(N2CCN(c3nc4ccccc4c(=O)n3-c3ccccc3)CC2)c1`, the activation is inactive: -9.94%.
The result for `O=c1c2c3c(sc2n(Cc2ccc(F)cc2Cl)c(=O)n1-c1ccc(Cl)cc1)CCC3` reads inactive: 14.2%; that for `Cc1ccc(NC(=O)c2sc3ncnc(N(C)C4CCCCC4)c3c2C)cc1`, inactive: -26.8%.
The result for `Cc1cc(C)c(S(=O)(=O)NCCc2csc3nc(-c4ccc(Cl)cc4)nn23)c(C)c1` reads inactive: -7.47%; that for `CC(=O)c1ccc(N2CCN(C(=O)C3CCN(S(=O)(=O)c4c(C)noc4/C=C/c4ccccc4F)CC3)CC2)cc1`, inactive: -14.9%; that for `Cc1ccccc1OCc1ccc(-c2nc(C#N)c(N3CCC(C(N)=O)CC3)o2)o1`, inactive: 0.852%.
For `CCOc1ccc2cc(-c3nnc(Nc4ccc(C)cc4)s3)c(=O)oc2c1`, the activation is inactive: 3.5%.
The result for `COc1cccc(Nc2nc3ccc(C(=O)c4ccccc4)cc3n3c(C)nnc23)c1` reads inactive: -1.34%; that for `CCOc1ccc2c(c1)c(=O)c(S(=O)(=O)c1ccc(Cl)cc1)cn2Cc1ccccc1C`, inactive: -1.19%.
The result for `CC(=O)Nc1ccc(S(=O)(=O)NCCS(=O)(=O)N2CCN(c3ccccc3F)CC2)cc1` reads inactive: -2.7%; that for `O=C(Nc1ccc(Cl)c(-c2nc3cc(Cl)ccc3o2)c1)c1cc2ccccc2o1`, inactive: -10.9%.
Turning to `Cc1ccc(C)c(CN2C(=O)c3ccccc3S(=O)c3ccc(C(=O)NCCC4=CCCCC4)cc32)c1` (configuration not stated), the activation is inactive: -6.88%.
The result for `COc1ccc(CCC(=O)NCCc2csc(-c3cccc(C)c3)n2)cc1` reads inactive: -1.3%; that for `Cc1ccccc1-c1nc(SCC(=O)N(C)c2ccccc2)c2c(=O)n(C)c(=O)n(C)c2n1`, inactive: -17.1%; that for `CCOC(=O)c1c(S(=O)(=O)NCC(=O)N(C)c2ccc(C)cc2)c(C)n(C)c1C`, inactive: -0.889%.
The result for `Cc1ccccc1NS(=O)(=O)c1nnc(NC(=O)c2ccco2)s1` reads inactive: 13.1%; that for `CC(=O)c1ccc(NC(=O)Cn2cc3c(n2)CCCC3)cc1`, inactive: -10.6%; that for `CCc1ccc(S(=O)(=O)c2cn(CC)c3cc(N4CCOCC4)c(F)cc3c2=O)cc1`, inactive: 6.12%.
The result for `O=C(O)c1cc(-c2ccc(C(F)(F)F)cc2)nc2n[nH]c(-c3ccccc3)c12` reads inactive: -23.9%.
Take `COc1ccc(Cl)cc1NC(=O)c1ccc2c(c1)CCCN2S(C)(=O)=O`: the activation was inactive: -13.6%.
The result for `COc1ccccc1C(=O)Nc1nnc(S(=O)(=O)N(C)c2ccc(Cl)cc2)s1` reads inactive: -10.6%; that for `CCOc1ccc(CN2CCN(c3ncnc4sc5c(c34)CC(C)CC5)CC2)cc1` (configuration not stated), inactive: -3.31%; that for `CCOc1ccc2c(c1)c(=O)c(S(=O)(=O)c1ccccc1)cn2CC(=O)Nc1ccccc1OC`, inactive: -1.2%.
As for `Cc1ccc(CNC(=O)C2CCN(S(=O)(=O)c3ccc4c(c3)CCCN4C(=O)C3CCC3)CC2)cc1`, the activation was inactive: -9.07%.
As to `CC(COc1ccc(/C=C/c2ccccc2)cc1)[N+](C)(C)C` (configuration not stated), the activation was inactive: -9.63%.
The result for `O=C(NCCSc1c(-c2ccccc2)[nH]c2ccccc12)c1ccc(S(=O)(=O)N2CCOCC2)cc1` reads inactive: -15%.
Consider `Cc1ccccc1Cn1c(CN2CCC(C(=O)NCCN(C)C)CC2)cc2ccccc21`, for which the activation is inactive: -18.1%.
On to `COc1ccc(NC(=O)CN2C(=O)CSc3ccc(S(=O)(=O)N4CCCC4)cc32)cc1OC`, for which the activation is inactive: -16.4%.
The result for `CCOc1ccc(S(=O)(=O)N(CC(=O)NCCc2ccc(OC)c(OC)c2)c2ccccc2)cc1` reads inactive: -2.2%; that for `COc1cccc(NC(=O)c2cc3c(=O)n(C)c4ccccc4c3n2C)c1`, inactive: 14.1%; that for `CCCCNC(=O)c1cnn2c(C)c(Cc3c(F)cccc3Cl)c(C)nc12`, inactive: -5.78%.
Take `Cc1ccccc1NC(=O)CN1C(=O)C(C)(C)c2ccccc21`: the activation was inactive: -6.96%.
`Cc1cccc(C)c1NC(=O)Cn1c(=O)n(CCC(=O)NCc2ccccc2Cl)c(=O)c2sccc21`: the activation is inactive: 9.42%.
The result for `COc1ccc(OC)c(CCNC(=O)c2c(C)oc3ncn(C)c(=O)c23)c1` reads inactive: -1.38%; that for `COc1ccccc1NS(=O)(=O)c1cc2c(cc1Cl)NC(=O)CO2`, inactive: 6.91%; that for `CCOc1ccc(CCNC(=O)CSc2cc(=O)n(C)c3ccc(Cl)cc23)cc1OCC`, inactive: -7.71%.
For `c1ccc(C2CN3CCSC3=N2)cc1` (configuration not stated), the activation is inactive: -7.75%.
`O=C1CN(C(=O)Nc2ccccc2C(F)(F)F)C(c2ccccc2)c2c(sc3c2CCCC3)N1` (configuration not stated): the activation was inactive: -47.4%.
The result for `CC(C)Oc1ccc(CNC(=O)c2ccc(Cn3c(=O)c4cccn4c4cccnc43)cc2)cc1` reads inactive: -0.866%.
Take `Cc1ccc(NC(=O)CSc2ccc(-c3sc(-c4ccccc4)nc3C)nn2)cc1F`: the activation is inactive: -14.3%.
The result for `CCN1C(=O)C2(c3ccccc31)c1c(oc3ccc(F)cc3c1=O)C(=O)N2CCCOC` (configuration not stated) reads inactive: -22.9%; that for `CCCc1cnc2c(c1SCc1ccc(C(F)(F)F)cc1)c(=O)n(C)c(=O)n2C`, inactive: -8.85%; that for `CN(C)S(=O)(=O)c1ccc(C(=O)Nc2ccc(-n3nncc3-c3ccccc3)cc2)cc1`, inactive: -28.4%.
As for `COc1ccccc1N1CCN(C(=O)Cn2ncc3c(=O)oc4ccc(C)cc4c32)CC1`, the activation was inactive: 10.8%.
The result for `Cc1cccc(N2CCN(C(=O)CCSCc3ccccc3F)CC2)c1C` reads inactive: -26.4%; that for `CC(=O)c1ccc(NC(=O)Cn2c(=O)n(Cc3ccco3)c(=O)c3sc4ccccc4c32)cc1`, inactive: -9.79%.
The result for `COc1ccc(-c2nsc(NC(=O)c3oc4cc(C)c(C)cc4c3C)n2)cc1` reads inactive: -13%; that for `Cc1cccc(CNC(=O)c2cnc3sc(N4CCCCCC4)nn3c2=O)c1`, inactive: -3.63%.
In the case of `Cc1ccc(N(Cc2cccs2)C(=O)COc2cccc(C)c2)cc1`, the activation is inactive: -0.997%.
